This note sets out measurements from PMC4336329 (PLoS ONE, 2015).

Structures are written as SMILES. Screen size: about 310,000 compounds; about 2,200 (0.71%) showed an effect of 50% or more. Effects have a minus sign here. The list shows a part of the results.

In the experiment the target is human ether-à-go-go-related gene (hERG) potassium channel (human, UniProt Q12809). Kind of experiment: primary screen, population patch clamp on CHO cells stably expressing hERG.
Sequence of human ether-à-go-go-related gene (hERG) potassium channel (Q12809 whole entry, looked up): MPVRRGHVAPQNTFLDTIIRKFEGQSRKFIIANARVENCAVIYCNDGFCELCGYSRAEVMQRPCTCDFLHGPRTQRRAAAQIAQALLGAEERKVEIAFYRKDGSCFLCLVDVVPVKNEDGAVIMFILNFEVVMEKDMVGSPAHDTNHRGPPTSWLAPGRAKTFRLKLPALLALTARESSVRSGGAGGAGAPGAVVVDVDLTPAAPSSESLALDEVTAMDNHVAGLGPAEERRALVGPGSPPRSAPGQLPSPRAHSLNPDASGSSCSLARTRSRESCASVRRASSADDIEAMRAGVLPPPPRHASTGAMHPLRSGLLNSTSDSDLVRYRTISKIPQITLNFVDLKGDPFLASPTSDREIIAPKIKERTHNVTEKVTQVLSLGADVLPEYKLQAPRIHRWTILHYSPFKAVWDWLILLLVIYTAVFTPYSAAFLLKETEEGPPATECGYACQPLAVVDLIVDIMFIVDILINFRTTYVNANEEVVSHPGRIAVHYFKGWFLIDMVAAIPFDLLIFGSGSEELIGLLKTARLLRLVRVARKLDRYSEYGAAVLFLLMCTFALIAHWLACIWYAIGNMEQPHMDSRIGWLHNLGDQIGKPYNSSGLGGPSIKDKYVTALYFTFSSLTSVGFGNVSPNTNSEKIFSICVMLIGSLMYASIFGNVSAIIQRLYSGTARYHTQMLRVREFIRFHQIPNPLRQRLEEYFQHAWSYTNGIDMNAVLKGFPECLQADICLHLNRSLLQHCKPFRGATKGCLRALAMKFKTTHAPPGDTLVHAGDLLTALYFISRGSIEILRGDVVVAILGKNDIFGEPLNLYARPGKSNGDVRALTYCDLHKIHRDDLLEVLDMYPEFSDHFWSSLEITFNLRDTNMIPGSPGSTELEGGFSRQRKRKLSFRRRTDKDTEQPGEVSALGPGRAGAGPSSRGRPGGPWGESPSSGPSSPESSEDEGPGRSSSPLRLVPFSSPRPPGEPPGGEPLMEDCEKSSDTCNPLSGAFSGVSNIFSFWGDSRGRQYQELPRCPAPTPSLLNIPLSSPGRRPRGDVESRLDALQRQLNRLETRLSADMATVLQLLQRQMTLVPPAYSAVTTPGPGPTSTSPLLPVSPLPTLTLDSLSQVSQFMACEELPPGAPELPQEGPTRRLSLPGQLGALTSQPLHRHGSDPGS
On to `CCOC(=O)Cn1c(=O)oc2cc(S(=O)(=O)Nc3cc(Cl)ccc3OC)ccc21`, for which the “hERG current change (%, negative = inhibition) at 1uM” value was 6.88%. In the case of `COc1ccc2cc(-c3ccccc3)c(=O)oc2c1`, the “hERG current change (%, negative = inhibition) at 1uM” value is 18.5%.

In the case of `O=C(O)c1nc2nc(Cl)c(Cl)nc2[nH]1`, the “hERG current change (%, negative = inhibition) at 1uM” value worked out at 17.1%. With `COC1=CC(=O)C(O)=C(CCCCCCC/C=C/CCCCCCCC2=C(O)C(=O)C=C(OC)C2=O)C1=O`, the “hERG current change (%, negative = inhibition) at 1uM” value was determined as 16.2%. In the case of `O=C(O)c1ccccc1/C=N/NC(=S)NC1CCCCC1`, the “hERG current change (%, negative = inhibition) at 1uM” value is listed as 6.63%. Under `COc1cc(Cl)c(C)cc1NC(=O)CCNC(=O)c1ccco1` stands 15%; under `COc1ccccc1CNC(=O)c1oc2ccccc2c1C`, 2.48%; under `O=C(/C=C/c1ccc(F)cc1)NCCCN1CCN(CCCNC(=O)/C=C/c2ccc(F)cc2)CC1`, -72.5%. Under `O=C(Nc1ccccc1NC(=O)C1CCCO1)c1ccco1` (stereo not drawn) stands 10.2%. As to `C=CCn1ccc2c([N+](=O)[O-])cccc2c1=O`, the “hERG current change (%, negative = inhibition) at 1uM” value is 8.46%. On to `COc1ccc(C2(C#N)CCN(C)CC2)cc1.Cl`, for which the “hERG current change (%, negative = inhibition) at 1uM” value is -0.0475%. Consider `Nc1cccn2c(-c3ccc(Cl)c(Cl)c3)cnc12`, for which the “hERG current change (%, negative = inhibition) at 1uM” value is 15.3%. For the molecule `COc1ccc(-c2cc(C(F)F)n3ncc(C(=O)N4CCc5ccccc54)c3n2)cc1`, the “hERG current change (%, negative = inhibition) at 1uM” value turned out to be 4.85%. Take `Cc1cc(C)cc(-n2ncc3c2CCCC3NC(=O)CCN2Cc3ccccc3C2=O)c1` (stereo not drawn): the “hERG current change (%, negative = inhibition) at 1uM” value was -10.7%.

Turning to `COC(=O)CC1=C(C(=O)OC)C(c2cccc(OCC(N)=O)c2)C(C#N)=C(N)O1` (stereo not drawn), the “hERG current change (%, negative = inhibition) at 1uM” value amounted to 9.72%. In the case of `O=C(NC(=S)Nc1cccc(Cl)c1N1CCOCC1)c1cccs1`, the “hERG current change (%, negative = inhibition) at 1uM” value is 16.2%.

Turning to `COc1ccc(S(=O)(=O)N2CCCC2)cc1C(=O)N1CCCCC1`, the “hERG current change (%, negative = inhibition) at 1uM” value came out at 11.6%. On to `O=C(CCl)NNC(=O)c1c(O)c2ccccc2[nH]c1=O`, for which the “hERG current change (%, negative = inhibition) at 1uM” value amounted to 9.94%. With `CN1CCCN(S(=O)(=O)c2ccc3c(c2)OCCO3)CC1`, the “hERG current change (%, negative = inhibition) at 1uM” value was found to be 12.7%.

Take `COc1ccccc1S(=O)(=O)NCc1ccc(C(=O)NC(C)c2ccccn2)cc1` (stereo not drawn): the “hERG current change (%, negative = inhibition) at 1uM” value amounted to 10.9%.

As to `Cc1cc(SCC(=O)N/N=C/c2ccccc2C(=O)O)c(C)cc1Br`, the “hERG current change (%, negative = inhibition) at 1uM” value is reported as 8.44%. Consider `CC(C)C(C)NC(=O)Cn1cnc2c(oc3ccccc32)c1=O` (stereo not drawn), for which the “hERG current change (%, negative = inhibition) at 1uM” value came to 10.8%. In the case of `COc1ccc(Br)cc1C(=O)NC(=S)Nc1ccc(CN2CCOCC2)cc1`, the “hERG current change (%, negative = inhibition) at 1uM” value was -0.395%. For `CCOc1ccc(-c2n[nH]c(C)c2Oc2ccc(OC)cc2)c(O)c1`, the “hERG current change (%, negative = inhibition) at 1uM” value is given as -6.34%. As to `O=[N+]([O-])c1ccccc1N/N=C1\CCc2ccccc21`, the “hERG current change (%, negative = inhibition) at 1uM” value is reported as 8.96%. For the molecule `C(#Cc1ccccc1)CN1CCCCC1.Cl`, the “hERG current change (%, negative = inhibition) at 1uM” value is reported as 2.27%.

With `C=CCOC(=O)C1=C(C)NC(=O)NC1c1cn(-c2ccccc2)nc1-c1cccs1` (stereo not drawn), the “hERG current change (%, negative = inhibition) at 1uM” value was determined as 10.8%. Regarding `COc1ccc(N2CCN(C(=O)COC(=O)c3ccc(C)o3)CC2)cc1`, the “hERG current change (%, negative = inhibition) at 1uM” value was found to be 12.5%.

`COc1cc(/C=C/C(=O)N2CCCN(C(=O)/C=C/c3cc(OC)c(OC)c(OC)c3)CC2)cc(OC)c1OC`: the “hERG current change (%, negative = inhibition) at 1uM” value stood at 9.62%. For `O=C(NCc1cccnc1)C1c2ccccc2C(=O)N1Cc1ccco1` (stereo not drawn) the value was -0.149%. For the molecule `CC(=O)Nc1cccc(/C(C)=N/N2C(C)CCCC2C)c1` (stereo not drawn), the “hERG current change (%, negative = inhibition) at 1uM” value was 16.8%.

Regarding `O=C(CSc1nc(Nc2ccccc2)nc(N2CCOCC2)n1)Nc1ccc([N+](=O)[O-])cc1`, the “hERG current change (%, negative = inhibition) at 1uM” value is on record as 7.87%. For `CCOC(=O)Cn1c(=O)c2c(nc3n2CCS3)n(C)c1=O`, the “hERG current change (%, negative = inhibition) at 1uM” value amounted to 9.3%. Turning to `Cc1ccc2c(c1)C1CN(C)CCC1N2S(=O)(=O)c1ccccc1` (stereo not drawn), the “hERG current change (%, negative = inhibition) at 1uM” value was -3.52%. For the molecule `COc1ccc(S(=O)(=O)N2CCCC2)cc1OC`, the “hERG current change (%, negative = inhibition) at 1uM” value is reported as 13%.

`Cc1cc(C)cc(NC(=O)c2c(C)nc3ccccn23)c1`: the “hERG current change (%, negative = inhibition) at 1uM” value was 16.4%. As for `O=c1oc2ccccc2c(NCCO)c1[N+](=O)[O-]`, the “hERG current change (%, negative = inhibition) at 1uM” value amounted to 10.3%. On to `CCN(CC)CCOC(=O)c1ccc(NC(=O)COc2cc(=O)n(CC)c3ccccc23)cc1`, for which the “hERG current change (%, negative = inhibition) at 1uM” value came out at 13.9%.

Consider `CCn1c(SCC(=O)c2ccccc2)nnc1-c1cccs1`, for which the “hERG current change (%, negative = inhibition) at 1uM” value stood at 0.612%.

`O=C(CSc1nnc(-c2ccccc2)c(-c2ccccc2)n1)N1CCc2ccccc21`: the “hERG current change (%, negative = inhibition) at 1uM” value is on record as 13.6%. For `COc1ccccc1-n1c(CNC(=O)c2ccco2)n[nH]c1=S` the value was 16.7%. For the molecule `CCCNC(=O)COC(=O)C1CCN(S(=O)(=O)c2ccc3c(c2)OCCO3)CC1`, the “hERG current change (%, negative = inhibition) at 1uM” value was 10.7%. On to `CN(CCOc1ccc(Cl)cc1)C(=O)c1cc(S(=O)(=O)N2CCOCC2)ccc1N1CCCC1`, for which the “hERG current change (%, negative = inhibition) at 1uM” value is reported as -21.8%. Take `Cc1ccccc1C(=O)NCC(C)NC(=O)c1ccccc1C` (stereo not drawn): the “hERG current change (%, negative = inhibition) at 1uM” value amounted to 11.5%.

As for `O=C(Cc1ccc(Cl)cc1)NNC1CC(=O)N(c2ccc3ccccc3c2)C1=O` (stereo not drawn), the “hERG current change (%, negative = inhibition) at 1uM” value was 6.62%. Consider `Cc1cc(Br)ccc1NC(=O)CNC(=O)c1cnn(C)c1`, for which the “hERG current change (%, negative = inhibition) at 1uM” value worked out at 19%. Under `C/C(=N/NC(=O)c1ccc(C)s1)c1cccc(NC(=O)c2ccoc2C)c1` stands 0.398%; under `[O-][n+]1c2ccccc2cc2ccccc21`, 13.2%; under `CC(C)(C)OC(=O)c1c(N)n(CCCN2CCCC2=O)c2nc3ccccc3nc12`, 5.21%. As for `CC(=O)Nc1ccc(S(=O)(=O)Nc2ccc3c(c2)OCCO3)cc1Cl`, the “hERG current change (%, negative = inhibition) at 1uM” value is recorded as 15.2%. Take `O=[N+]([O-])c1ccccc1/C=N/NC1=NCCN1`: the “hERG current change (%, negative = inhibition) at 1uM” value was determined as 11.5%.

As to `COc1cc(Cl)c(C)cc1NC(=O)CSc1nnc(-c2cccnc2)n1Cc1ccco1`, the “hERG current change (%, negative = inhibition) at 1uM” value is reported as -10%. Consider `Cc1ccc(S(=O)(=O)N2CCCCC2)cc1`, for which the “hERG current change (%, negative = inhibition) at 1uM” value is on record as 15%. Consider `COC(c1ccccc1)(c1ccccc1)C(Oc1nccc(C)n1)C(=O)O` (stereo not drawn), for which the “hERG current change (%, negative = inhibition) at 1uM” value is recorded as 22.6%.

Regarding `CCn1cc(/C=C(\NC(=O)c2ccccc2OC)C(=O)N2CCN(C)CC2)c2ccccc21`, the “hERG current change (%, negative = inhibition) at 1uM” value is recorded as 7.03%.

Regarding `Cc1cc(NC(=O)COc2ccccc2)n(-c2ccccc2)n1`, the “hERG current change (%, negative = inhibition) at 1uM” value is reported as 7.62%. Take `CC(=O)OC(C)C(=O)NS(=O)(=O)c1ccc(C)cc1` (stereo not drawn): the “hERG current change (%, negative = inhibition) at 1uM” value was determined as 4.92%.
